Reference: ChEMBL document CHEMBL4888484, “Replenishing the malaria drug discovery pipeline: Screening and hit evaluation of the MMV Hit Generation Library 1 (HGL1) against asexual blood stage Plasmodium falciparum ,using a nano luciferase reporter read-out” (2022)
Out of some 4,800 compounds screened, about 420 (8.8%) showed an effect of 50% or more. Some of the results follow.

Each compound was assayed on Plasmodium falciparum (assay: Confirmatory screen in NF54 nanoGlo assay, in single point, at 2uM, 72h). Conditions: timepoint 72 hour.
Format: functional, Erythrocyte
In the case of `CN(C)CC(O)COc1ccc(S(=O)(=O)c2ccc(OCC(O)CN(C)C)c(Cl)c2)cc1Cl` (stereo not drawn), the “% Inhibition” value is reported as 45%.
With `Cc1cc(Br)ccc1CN(C)S(C)(=O)=O` the “% Inhibition” value was -9%.
In the case of `O=C(CCCc1ccc2c(c1)CC(=O)N2)Nc1ccc2c(c1)C(=O)NC2`, the “% Inhibition” value is reported as -6%.
With `CCn1c(=O)c(N2CCN(C(=O)Nc3ccccc3Cl)CC2)nc2ccccc21` the “% Inhibition” value was -6%.
With `Cc1cc(F)ccc1-n1ccc(C(=O)N(C[C@H]2CCOC2)C2CC2)n1` the “% Inhibition” value was -7%.
`CCN(CC)c1ccc(NS(=O)(=O)c2cc(S(=O)(=O)c3ccc(Cl)c(S(=O)(=O)Nc4ccc(N(CC)CC)cc4)c3)ccc2Cl)cc1` was tested, and the “% Inhibition” value was 0%.
For `Cc1ccc(-c2ccnn2C)cc1NC(=O)c1cscn1`, the “% Inhibition” value was 1%.
In the case of `CC1=N[C@H](N2CCN(c3ccccc3)CC2)NC(O)=C1`, the “% Inhibition” value is reported as -12%.
For `C[C@@H](C1CC1)N(C)S(=O)(=O)Cc1cc(Cl)cc(Cl)c1`, the “% Inhibition” value was -3%.
`CCOn1c(-c2ccc(F)cc2)nc2c1OC=NN2OCc1ccccc1` was tested, and the “% Inhibition” value was 0%.
In the case of `CCNC(=O)N[C@H]1CO[C@H]2[C@@H]1OC[C@@H]2Nc1nccc(-c2ccc(-c3ccccc3)cc2)n1`, the “% Inhibition” value is reported as 2%.
With `COc1ccc(C(=O)Nc2c(C)nc3ncnn3c2O)cc1` the “% Inhibition” value was -2%.
With `O=C(c1ccc2c(c1)OCCCO2)N1CCCCC1` the “% Inhibition” value was -3%.
With `CCCCNC(=O)Cc1noc([C@@H]2Cc3ccccc3O2)n1` the “% Inhibition” value was -11%.
`Cc1c(C2CC2)n[nH]c1NC(=O)C1CC1c1ccccc1` (stereo not drawn) was tested, and the “% Inhibition” value was -1%.
`CCOC(=O)C(C)NC(=O)C(C)NC(=O)c1ccc(F)c(C#N)c1` (stereo not drawn) was tested, and the “% Inhibition” value was -4%.
In the case of `O=C(Nc1nc(Cc2ccccc2)cs1)C1CCOCC1`, the “% Inhibition” value is reported as 2%.
In the case of `NC(=O)C1(CNC(=O)c2cccn3c(=O)[nH]nc23)CCCC1`, the “% Inhibition” value is reported as -6%.
With `CN(CCCNC(=O)C(=O)Nc1ccn(C)n1)c1cccc(F)c1` the “% Inhibition” value was 0%.
With `CC(C)(C)NC(=O)C1CCN(C[C@@H]2CC=CCC2)CC1` the “% Inhibition” value was 5%.
In the case of `Cc1ccc(C(=O)NC2c3ccccc3CCC2n2ccnc2)c(=O)[nH]1` (stereo not drawn), the “% Inhibition” value is reported as -2%.
For `Cc1ccc(N2C(=O)C3C4C=CC(C4=C4CCCC4)C3C2=O)c(C)c1` (stereo not drawn), the “% Inhibition” value was -5%.
With `CC1CC(C)(C)CCC1NC(=O)NC1CCN(C)C1=O` (stereo not drawn) the “% Inhibition” value was -4%.
`CC(C)(NC(=O)OCc1ccccc1)/C(N)=N/O` was tested, and the “% Inhibition” value was 2%.
With `CCc1ccc(C2CCN(C(C(=O)O)c3cccnc3)C2)cc1` (stereo not drawn) the “% Inhibition” value was 1%.
With `Cc1ccc(S(=O)(=O)Cc2nc(-c3ccc(C(=O)NCc4ccccc4C)cc3)oc2C)cc1` the “% Inhibition” value was -13%.
In the case of `CCN1CCC(N(C)C(=O)Cc2csc(-c3cccnc3)n2)CC1`, the “% Inhibition” value is reported as -7%.
With `O=C(Nc1ccccc1)Nc1nnc[nH]1` the “% Inhibition” value was -6%.
